Test [1] can be described thus: qHTS Assay for Lipid Storage Modulators (AID 1519). As to conditions: Drosophila S3 cells, BODIPY lipid droplet/cell ratio, laser cytometry, cells loaded with oleic acid. The gist of the method: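 Cells seeded at 5,000 per well were treated with compounds over a concentration series and loaded with oleic acid (400 uM, as added). Lipid droplet fluorescence (488 nm excitation, 500-530 nm channel) was read by laser-scanning cytometry and normalized to 20 uM Triacsin C.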
For orientation: In qHTS, concentration-response curves come from the screen itself.

Test [2] in a line: qHTS Assay for Modulators of Human Peripheral Myelin Protein 22 (PMP22) Expression/Activity (AID 1967). As to conditions: Cell-based PMP22 reporter, dual-color luciferase ratio. Summed up: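 Readout is the corrected green/red luminescence ratio after 24 h compound exposure, normalised to untreated cells (0%). Engineered MSC80 mouse Schwann cells express green luciferase from the mouse Pmp22 promoter and red luciferase from EF-alpha as internal control.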

Test [3] can be described thus: qHTS Validation Assay to Find Inhibitors of Chronic Active B-Cell Receptor Signaling (AID 485345). As to conditions: ABC-DLBCL cells, chronic BCR signaling reporter; measured here: CBG/CBR ratio read-out. Summed up:
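Read-out: ratio of filter-corrected green (IkappaBalpha fusion) to red (native) luciferase signal in doxycycline-induced TMD8 cells after 4 h at 37C. Titration spanned 46 uM–3 nM; Data were normalised to basal cells and 10 uM MG-132 wells.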

Test [4] in a line: Nrf2 qHTS screen for inhibitors: Validation (AID 493153). The following applies: A549 ARE-Fluc reporter, 18-24 h; AC50: CellTiter-Fluor fluorescence read, measured here: cytotoxicity CellTiter-Fluor AC50; viability change: measured here: cytotoxicity max response. Summed up:
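Luminescence from an ARE-firefly luciferase reporter in A549 cells gives Nrf2 inhibition; an earlier CellTiter-Fluor fluorescent read flags cytotoxicity. Cells in 5% FBS OPTI-MEM received compound dilution series for 18-24 h at 37°C.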

Test [5] can be described thus: NCATS anti-infectives library activity on the primary C. elegans qHTS viability assay (AID 1745855). As to conditions: C. elegans worm area imaging, day 7; measured here: worm number, day 3. Summed up: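 Viability read-out is GFP fluorescence of PE254-GFP-FLuc C. elegans, measured by laser cytometry (488 nm) at day 0, 3 and 7. Ten L1 worms per well were incubated 7 days at 21 °C with compounds and bacterial capsules in S medium.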

A short description of test [6]: qHTS assay for small molecule antagonists of peroxisome proliferator-activated receptor delta signaling (AID 588535).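 Also: cells co-treated with a PPAR-delta agonist as stimulator during compound exposure.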 As to conditions: HEK293T PPARd-UAS-bla, beta-lactamase FRET ratio, 18 h; 460 nm channel. Summed up: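 HEK293T PPAR-delta-UAS-bla cells, 4000/well, 2% charcoal/dextran FBS; 5 h 37 C; cpd titration; 18 h 37 C; CCF4 2 h RT; FI 460/530 nm; Hill fit → IC50, efficacy.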

The nature of test [7]: qHTS assay for small molecule antagonists of peroxisome proliferator-activated receptor gamma signaling (AID 588537). The following applies: HEK293 PPARg-UAS-bla, beta-lactamase ratio, antagonist mode; measured here: W460 blue channel. The gist of the method:
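Antagonist mode, beta-lactamase reporter in HEK293; charcoal/dextran FBS 1%; 3000 cells/well, 37 C 6-6.5 h; cpd titration + rosiglitazone 50 nM final, 16 h 37 C; CCF4, 2 h RT; 460/530 nm; Hill fit → IC50, efficacy.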

Test [8] can be described thus: qHTS assay for small molecule antagonists of retinoid X receptor alpha signaling (AID 588546).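 Also: cells stimulated with 9-cis-retinoic acid as agonist; % is scaled to controls: 0 for no effect and ±100 for the full control effect.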 As to conditions: HEK293T RXRa-UAS-bla, beta-lactamase ratio, antagonist mode; measured here: W530 green channel, cytotoxicity proxy. Summed up:
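Beta-lactamase reporter inhibition, read as CCF4 fluorescence ratio (ex 405, em 460/530 nm) after 2 h at RT. HEK293T UAS-bla cells, 2500/well, were stimulated with 9-cis-RA at 500 or 100 nM final alongside test compound for 18 h at 37 C.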

Test [9] can be described thus: qHTS Assay for Inhibitors of PDE-IV (AID 607).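 Also: parental cells stimulated with forskolin 10 µM plus RO 20-1724 100 µM.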 The following applies: HEK293 ACTOne CNG channel cells, membrane potential fluorescence; measured here: parental cell counter-screen. Summed up: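 Cell-based read-out of cAMP via a modified cyclic nucleotide-gated channel and membrane potential dye (535/590 nm) in HEK293 cells expressing PDE4 endogenously. Compounds tested up to 22.9 uM final; 100 uM RO 20-1724 reference.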

Test [10] is described as follows: qHTS assay for small molecule antagonists of androgen receptor signaling (AID 588516). As to conditions: AR-UAS-bla HEK293, beta-lactamase ratio, antagonist mode, 16 h; measured here: W460 blue channel fit. Summed up:
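Cells were plated and incubated 5 h, compounds added in titration, then R1881 (10 nM final) as agonist. After 16 h at 37 C, CCF4 substrate was loaded for 2 h at room temperature and fluorescence measured.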

Test [11] can be described thus: qHTS assay for small molecule antagonists of vitamin D receptor signaling (AID 588541). The following applies: HEK293T VDR-UAS-bla, beta-lactamase ratio, antagonist mode; measured here: W460 blue channel (cell viability).
Test [12] is described as follows: qHTS assay for small molecule antagonists of glucocorticoid receptor signaling (AID 588533).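 Also: cells stimulated with 2 nM dexamethasone as agonist.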 The following applies: HeLa MMTV-bla, GRE beta-lactamase ratio, antagonist mode, 18 h; measured here: W530 channel AC50.
Test [13] in a line: qHTS assay for small molecule agonists of retinoid X receptor alpha signaling (AID 588544). The following applies: HEK293T RXRa-UAS-bla, beta-lactamase reporter, 18 h; 530 nm emission.
[14] abbreviates: measured here: cell count channel max response.
[15] abbreviates: measured here: lipid (BODIPY) channel AC50.
The mark [16] stands for this setting: measured here: lipid channel max response.
[17] abbreviates: measured here: green reporter channel AC50, mouse Pmp22 promoter in mouse Schwann cells.
Setting [18] is: measured here: red reporter channel AC50, EF-alpha promoter control reporter in MSC80 mouse Schwann cells.

The text below walks through data of PubChem BioAssay (NCATS).

For orientation: AC50 means the midpoint of the concentration-response curve, whichever way the signal moves.

“And” between values parts separate entries of the source, which are not always exact repeats. Equal entries are not always repeated. The list shows a part of the results. The main result of the screen is listed elsewhere. These columns were measured beside it and carry no call. The list favours compounds with an active or inconclusive main result. For part of these data: The note in brackets gives the kind of curve behind each potency; many fits are weak.
Tags tell the direction and shape of the fitted curve.

In the case of `COc1ccc2c(c1)[C@@]13CCCC[C@H]1[C@@H](C2)NCC3`, the max response in test [1] (setting [14]) amounted to 46.2%; in test [1] (setting [16]), 46%. Also, the AC50 in test [1] (setting [15]) was 39.8 µM [rising, single point]; in [2] (setting [17]) it was 84.9 µM [falling, single point]; in test [2] (setting [18]), 84.9 µM [falling, single point]; in test [3], 16.4 µM [falling, single point]; in [4], 11.6 µM [falling, partial curve, poor fit]. Besides, the viability change in test [4] is -21.6%.

On to `CC(C)Oc1cccnc1N(C)C1CCN(Cc2ccccc2)CC1`, for which the max response in test [1] (setting [14]) is -26.6%; in [1] (setting [16]), -27.9%. Besides, in test [2] (setting [18]), the AC50 is 84.9 µM [falling, single point].

In the case of `NCCc1ccc(S(=O)(=O)F)cc1`, the max response in test [1] (setting [14]) came to 74.7%; in test [1] (setting [16]), 75%. In addition, the AC50 in [5] was 0.648 µM [falling, partial curve, poor fit].

Turning to `CCCN(CCC)[C@H]1CCc2c(F)ccc(O)c2C1`, the max response in test [1] (setting [14]) is -19%; in [1] (setting [16]), -18%. In addition, the AC50 in [2] (setting [18]) was 26.9 µM [rising, partial curve, poor fit].

Take `COP(=S)(OC)SCn1nnc2ccccc2c1=O`: the max response in [1] (setting [14]) was -7.5%; in [1] (setting [16]) it was -4.37%; in test [6], -2.94% and -78.5%; in test [8], 18.5% and 7.65%. Besides, the AC50 was 1.41 µM [rising, partial curve] in test [1] (setting [15]) and 70.8 µM [rising, single point] in test [7].

With `CCCn1c(C)c(C(=O)c2cccc3ccccc23)c2ccccc21`, the AC50 was 15.8 µM [rising, partial curve] in test [9] and 12.6 µM [rising, partial curve, poor fit] in test [1] (measured here: cell number channel AC50). The values for the max response in test [1] (setting [14]) and in test [1] (setting [16]) were 85.3% and 109%, respectively.

For `CC(C)N(C(=O)CCl)c1ccccc1`, the max response in test [1] (setting [14]) is 14.3%; in [1] (setting [16]) it was -58.8%; in test [8] it was 40.8%. In addition, the concentration at half-maximal activity (AC50) in test [1] (setting [15]) was 20 µM [falling, single point]; in test [10], 50.1 µM [falling, partial curve, poor fit]; in test [11], 39.8 µM [falling, partial curve, poor fit].

Consider `Clc1ccc(C(c2ccc(Cl)cc2)C(Cl)(Cl)Cl)cc1`, for which the max response was 25.6% in test [1] (setting [14]); 34.9% in test [1] (setting [16]); 30% in [6]; -68.5% and 19.4% in [13]; -43.9% and -5.51% in test [8]. In addition, the AC50 in test [1] (setting [15]) is 6.31 µM [rising, full curve, poor fit]; in test [12], 50.1 µM [falling, single point].

For the compound `CN1C[C@@H](CS(=O)(=O)N(C)C)C[C@@H]2c3cccc4c3c(cn4C)C[C@H]21`, the max response in test [1] (setting [14]) was determined as 67.8%; in test [1] (setting [16]) it was 73.5%. Moreover, the AC50 is 84.9 µM [falling, single point] in test [2] (setting [17]) and 84.9 µM [falling, single point] in test [2] (setting [18]).

Turning to `COc1cc(CC(C)N)c(OC)cc1I` (stereo not drawn), the max response in [1] (setting [14]) is 34.2%; in test [1] (setting [16]), 38.6%. The AC50 is 67.5 µM [falling, partial curve] in [2] (setting [17]) and 67.5 µM [falling, partial curve] in test [2] (setting [18]).
